Measured values published in PubChem BioAssay AID1645882 (National Center for Advancing Translational Sciences (NCATS), 2021).
The campaign covered roughly 16,000 compounds. About 120 (0.75%) were called active. Roughly 4% stayed inconclusive and do not appear here. Calls come from the whole dose curve; as a rule, active = well fitted inhibition curve with a large enough effect; inconclusive = small, poorly fitted or top-dose-only effect; inactive = no such curve, though single readings can be large or run the other way. Some of the results follow.

Biological target: Rap guanine nucleotide exchange factor 3 (Homo sapiens) (UniProt O95398)
Sequence of UniProt O95398 (O95398 whole entry, looked up): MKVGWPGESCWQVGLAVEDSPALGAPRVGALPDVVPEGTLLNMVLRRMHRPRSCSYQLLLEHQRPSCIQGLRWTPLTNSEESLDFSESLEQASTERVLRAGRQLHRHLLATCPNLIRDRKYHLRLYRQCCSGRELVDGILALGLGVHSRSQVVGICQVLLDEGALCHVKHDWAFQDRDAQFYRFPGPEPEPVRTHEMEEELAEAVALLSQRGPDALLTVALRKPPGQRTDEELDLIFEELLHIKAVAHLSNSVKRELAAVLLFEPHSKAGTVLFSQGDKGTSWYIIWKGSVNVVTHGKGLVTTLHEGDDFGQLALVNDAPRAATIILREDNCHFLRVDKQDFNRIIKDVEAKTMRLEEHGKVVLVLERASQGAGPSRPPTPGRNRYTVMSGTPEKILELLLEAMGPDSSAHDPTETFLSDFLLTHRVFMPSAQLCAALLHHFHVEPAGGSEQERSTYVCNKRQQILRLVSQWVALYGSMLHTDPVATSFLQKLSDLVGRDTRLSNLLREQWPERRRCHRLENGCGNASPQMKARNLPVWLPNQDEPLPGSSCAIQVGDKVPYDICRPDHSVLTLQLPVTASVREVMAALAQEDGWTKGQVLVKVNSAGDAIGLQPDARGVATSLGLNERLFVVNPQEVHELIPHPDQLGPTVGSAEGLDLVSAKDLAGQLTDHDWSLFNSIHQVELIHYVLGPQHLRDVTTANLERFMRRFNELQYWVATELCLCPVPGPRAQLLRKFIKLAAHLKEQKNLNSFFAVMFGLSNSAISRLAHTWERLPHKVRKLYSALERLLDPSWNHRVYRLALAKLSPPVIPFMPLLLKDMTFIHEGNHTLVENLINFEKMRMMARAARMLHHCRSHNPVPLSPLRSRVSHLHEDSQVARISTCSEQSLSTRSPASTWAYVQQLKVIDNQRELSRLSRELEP
Assay: Validation qHTS for antagonist of cAMP-regulated guanine nucleotide exchange factor 3 (EPAC1); note: nearly all actives have a fitted effect of over 75% in size;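 for activity change, negative = inhibition: plate controls were DMSO for no effect and ATA control for full effect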
Settings: EPAC1 Rap1B-BODIPY-GDP exchange, fluorescence; series mostly up to 150 µM; activity change, negative = inhibition: at the top concentration
Outline: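 EPAC1 (100 nM) mixed with 250 nM RAP1B-BODIPY-GDP and 50 uM GDP; compounds in concentration series, 5 min at room temperature. Fluorescence (ex 480/em 540 nm) read every 5 min for 30 min; normalized to ATA control and DMSO.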
Potency is the fitted concentration of half-maximal effect.

SMILES | activity change, negative = inhibition | Potency
Cn1cc(-c2nc3cnc(Oc4ccccc4)nc3n(CCC#N)c2=O)c2ccccc21 | inactive: 27.2% | –
CCc1nn(CCCN2CCN(c3cccc(Cl)c3)CC2)c(=O)n1CCOc1ccccc1 | inactive | –
O=c1c(O)cc(C2Oc3cc(O)cc(O)c3CC2O)cc2c(C3Oc4cc(O)cc(O)c4CC3O)cc(O)c(O)c12 (stereo unspecified) | – | active: 39.8 µM
CO[C@H]1[C@H](NC(=O)c2cccc(F)c2)c2ccccc2C12CCN(Cc1ccco1)CC2 | inactive: 7.18% | –
CCCCCC(O)CCCC(=O)O (stereo unspecified) | inactive | –
C[C@@H]1CCN=C(N)S1 | inactive: -9.46% | –
COc1cccc(-c2cncnc2NCc2ccccc2OC)c1 | inactive: 8.57% | –
COCCn1c(=O)c(-c2ccccc2)nc2cnc(Nc3cccc(OC)c3)nc21 | inactive: 24.5% | –
O=C(C[n+]1cccc(Br)c1)c1ccc(Br)cc1 | inactive: 10.8% | –
CCCCC(=O)O[C@]1(C(=O)CO)[C@H](C)C[C@H]2[C@@H]3CCC4=CC(=O)C=C[C@]4(C)[C@@]3(F)[C@@H](O)C[C@@]21C | inactive: 0.544% | –
COc1cc(N)c(Cl)cc1C(=O)OCCN1CCCCC1 | inactive: 2.29% [at 75.8 µM] | –
COc1cccc(Cn2c(=O)c(-c3cccc(C#N)c3)nc3cnc(N4CCN(C)CC4)nc32)c1 | inactive: 4.61% | –
CCCCC(=O)OCC(=O)[C@H]1[C@H](C)C[C@H]2[C@@H]3C[C@H](F)C4=CC(=O)C=C[C@]4(C)[C@@]3(F)[C@@H](O)C[C@@]21C | inactive: -10.3% | –
Cc1cc(C)nc(-c2cccc3c2OC(CNC(=O)C2CCOC2)C3)n1 (stereo unspecified) | inactive: 13.4% | –
CC1c2cccc(O)c2C(O)=C2C(=O)[C@]3(O)C(O)=C(C(N)=O)C(=O)C(N(C)C)C3C(O)C21 (stereo partly specified) | inactive: 10.5% | –
O=c1c(-c2ccccc2)nc2cnc(N3CCOCC3)nc2n1Cc1cccs1 | inactive: 6.19% | –
Cc1c(Nc2ncccc2C(=O)O)cccc1C(F)(F)F | inactive | –
CC[C@H](c1ccc(O)cc1)[C@@H](CC)c1ccc(O)cc1 | inactive: -11.3% [at 75.8 µM] | –
O=C(Cc1ccccc1)NO | inactive: 6.94% | –
CN(Cc1ccon1)C(=O)c1cnn(-c2nccc(-c3ccc4c(c3)OCO4)n2)c1C1CC1 | inactive: 6.11% | –
CCN(Cc1ccncc1)Cc1ccc2c(c1)CN(C(=O)c1ccc(OC)cc1)CCO2 | inactive: 17.1% | –
O=C(Nc1cccc(C2=NCCN2)c1)Nc1cccc(C2=NCCN2)c1 | inactive: -6.27% | –
Nc1ncnc2c1ncn2C1CCCC1 | inactive: 7.44% [at 75.8 µM] | –
CCCOC(=O)c1ccc(N)cc1 | inactive: -4.04% | –
Cc1cc(N(C)C)cc(C)c1/C=C/c1ccnc2ccccc12 | inactive: -6.74% | –
Cc1ccc(C(=O)N(Cc2cc3cccc(C)c3nc2N(C)C)CC2CCCO2)cc1 (stereo unspecified) | inactive: 0.406% | –

SMILES | activity change, negative = inhibition | Potency
COc1cc(C)c(CN2CCc3nnc(C(C)NC(=O)c4cc(F)ccc4F)n3CC2)cc1C (stereo unspecified) | inactive: 10.9% | –
COCc1c(C(=O)NC2CCCC2)cnn1-c1nccc(-c2ccco2)n1 | inactive: 5.94% | –
C[C@]12CCC(=O)C=C1CC[C@@H]1[C@@H]2[C@@H](O)C[C@@]2(C)[C@H]1CC[C@]2(O)C(=O)COP(=O)(O)O | inactive: 27% | –
Cc1c([N+](=O)[O-])cnc2ccccc12 | inactive: -15.3% | –
COC(=O)c1cccc(C(=O)N2CCc3c(cnc(C)c3CNC(=O)c3ccsc3)C2)c1 | inactive: 8.68% | –
O=C1NC(c2cccc([N+](=O)[O-])c2)=CCN1c1ccccc1O | inactive | –
CC(=O)OCC(=O)[C@@]1(O)CC[C@H]2[C@@H]3CCC4=CC(=O)C=C[C@]4(C)[C@H]3[C@@H](O)C[C@@]21C | inactive: 26.8% | –
CN(C)c1ncnc2ccc(-c3cccnc3)cc12 | inactive: 1.85% | –
CC(=O)Nc1cc(C(=O)N2CCN(C(=O)c3ccco3)CC2)cc2ncn(CCc3ccccn3)c12 | inactive: 9.96% | –
Cc1nc2ccccc2nc1CN1CCOc2ccc(C(C)(O)COc3ccccc3)cc2C1 (stereo unspecified) | inactive: -13.5% | –
O=c1c(CCc2ccccc2)nc2cnc(N3CCNCC3)nc2n1CCc1ccccc1 | inactive: 7.55% | –
COc1ccccc1-c1nccc(NCc2cccs2)n1 | inactive: 12.2% | –
O=c1c(-c2ccccc2)nc2cncnc2n1-c1ccccc1 | inactive: 16.2% | –
CS(=O)(=O)N1CCC[C@@]2(CCN(Cc3ccccc3)C2)C1 | inactive: 5.44% | –
C1CCN2CC3CC(CN4CCCC[C@@H]34)C2C1 (stereo partly specified) | inactive: -11.7% | –
O=C(c1cnccn1)N1CCC[C@@]2(CCN(C(c3ccccc3)c3ccccc3)C2)C1 | inactive: -7.92% | –
N#Cc1cccc(NC(=O)N2CC[C@@]3(CCCN(C(=O)c4cccc(F)c4)C3)C2)c1 | inactive: -9.14% | –
NC(=Nc1ccccc1)Nc1ccccc1 | inactive | –
CCCN(CC1CC1)c1nc(C)nc(Nc2c(Cl)cc(Cl)cc2Cl)c1Cl | inactive | –
O=C(NCCc1nnc2n1CCN(Cc1ccc(F)c(F)c1)CC2)c1ccoc1 | inactive: 16.5% | –
Nc1nc(Cl)c2ncn(C3OC(CO)C(O)C3O)c2n1 (stereo unspecified) | inactive: 8.74% | –
COc1ccccc1-c1ccnc(-n2ncc(C(=O)NCCCN3CCOCC3)c2C)n1 | inactive: 18.4% | –
O=S(=O)(c1ccccc1)N1CCC2(CCN(c3ccncc3)CC2)CC1 | inactive: 18.4% | –
CCN1CCN(C(=O)c2cc(NC(=O)COC)cc3nc(-c4ccncc4)n(C)c23)CC1 | inactive: -7.46% | –
O=C1OC(C(O)CO)C(O)=C1O (stereo unspecified) | inactive: 8.97% | –
